Where “and” joins values, the source holds several entries; their conditions need not be identical. Identical values can stand only once. Out of some 110,000 compounds screened, about 230 (0.21%) showed an effect of 50% or more. The list shows a part of the results.
target: DPAP1 (Plasmodium falciparum, UniProt Q8IIJ9); assay: primary screen, percent inhibition; read by cleavage of a fluorogenic dipeptide substrate; higher = more effect of the substance; design: species or system P. falciparum D10 trophozoite lysates; single well
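Further: 30 min substrate incubation versus DMSO and 10 µM JCP410 controls.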

Sequence of DPAP1 (Q8IIJ9 whole entry, looked up): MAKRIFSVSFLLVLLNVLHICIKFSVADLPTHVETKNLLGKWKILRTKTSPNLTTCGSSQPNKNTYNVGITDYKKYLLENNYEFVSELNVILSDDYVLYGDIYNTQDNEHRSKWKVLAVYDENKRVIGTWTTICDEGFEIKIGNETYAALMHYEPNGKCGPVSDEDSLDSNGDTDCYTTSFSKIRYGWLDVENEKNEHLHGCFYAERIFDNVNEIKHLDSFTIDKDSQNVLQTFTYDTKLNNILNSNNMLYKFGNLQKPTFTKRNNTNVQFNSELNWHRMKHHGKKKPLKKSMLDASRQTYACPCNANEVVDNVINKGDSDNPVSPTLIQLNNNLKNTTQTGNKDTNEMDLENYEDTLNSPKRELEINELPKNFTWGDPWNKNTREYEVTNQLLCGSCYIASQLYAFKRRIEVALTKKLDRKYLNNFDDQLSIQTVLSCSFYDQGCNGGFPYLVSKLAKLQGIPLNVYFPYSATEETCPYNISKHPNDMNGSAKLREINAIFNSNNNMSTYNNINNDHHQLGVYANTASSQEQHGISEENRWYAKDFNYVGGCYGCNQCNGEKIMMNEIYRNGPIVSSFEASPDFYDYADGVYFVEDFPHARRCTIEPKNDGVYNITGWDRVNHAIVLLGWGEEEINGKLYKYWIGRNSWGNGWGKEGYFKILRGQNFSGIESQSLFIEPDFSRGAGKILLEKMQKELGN

Row | SMILES | % Inhibition @ 10 uM
1 | Cc1ccc(NC(=O)c2ccc(Cl)cc2)cc1C | -0.274%
2 | CCN(CC)CC1OCc2ccccc2CO1 | -5.33%
3 | Cc1cccc(Cn2c(=O)sc3ccccc32)c1 | 1.74%
4 | Oc1cc(Cc2ccccc2)cnc1CN1CCCCC1 | 2.38% and 2.94%
5 | CCn1cc(CN(C)S(=O)(=O)c2ccc3ccccc3c2)cn1 | -1.43%
6 | CCOCCCNC1CCC(C)CC1 (stereo not shown) | -1.81%
7 | COc1ccccc1/N=C/C=C(\O)c1ccc(OC)c(OC)c1 | 1.35%
8 | CCC(NC(=O)c1cccc(Cl)c1)c1ccc(OC)c(OC)c1 (stereo not shown) | -5.14%
9 | CCC(N)C(=O)c1c(C)cc(C)cc1C (stereo not shown) | -1.05%
10 | O=[N+]([O-])c1ccc(-c2ncnn2-c2ccccc2)cc1 | -1.96%
11 | O=C(O)c1cc(-c2cc(Cl)ccc2O)nc2[nH]nc(-c3ccccc3)c12 | 13.2%
12 | O=C1Cc2ccccc2Sc2ccc(O)cc21 | -2.98%
13 | CNc1sc(C(=O)c2ccc(OC)cc2)c(N)c1C#N | 1.84%
14 | c1ccc2sc(N3CCN(Cc4ccc5c(c4)OCO5)CC3)nc2c1 | -2.94%
15 | Cc1ccccc1-c1[nH]c2c(C#N)cnn2c1NC1CCCCC1 | 0.596%
16 | CC1CCCC(NC(=O)CN2N=C(c3ccc(Cl)cc3)CCC2=O)C1C (stereo not shown) | -1.21%
17 | O=C(NCCC1=CCCCC1)NC1CCCCC1 | -3.26%
18 | CN(C(=O)CCCOc1ccc(Cl)cc1Cl)C1CCCCC1 | -0.351%
19 | N#CCNC(=O)C(Cc1ccccc1F)NC(=O)OCc1ccccc1 (stereo not shown) | -3.48%
20 | Cc1ccc2oc(=O)n(CCOc3ccc(Br)cc3)c2c1 | -2.56%
21 | Cc1cc(C(=O)O)c(C)cc1OCc1ccccc1 | -5.21%
22 | O=C(NCC1CCCCC1)NC1CCCN(c2cnccn2)C1 (stereo not shown) | 2.41%

Row | SMILES | % Inhibition @ 10 uM
23 | CC1(C)O[C@H]2[C@@H](O1)[C@@H](C(=O)NCc1ccco1)O[C@@H]1OC(C)(C)O[C@@H]12 | 1.64%
24 | Cc1cc(Cl)ccc1OCC(O)CN1CCC(C)CC1 (stereo not shown) | 1.67%
25 | CCSC(=S)NC1CCS(=O)(=O)C1 (stereo not shown) | -2.65%
26 | CC1=CC2=NC(=O)/C(=C\c3ccc(OCc4ccc(F)cc4)cc3)C(=N)N2O1 | -3.23%
27 | Cc1ccc(OCCNC(=O)Cn2cnc3c(=O)n(C)c(=O)n(C)c32)cc1C | -9.26%
28 | COc1cc(C(=O)N/C(=C/c2ccc(F)cc2)C(=O)NC(C)C(=O)O)cc(OC)c1OC (stereo not shown) | 19.7%
29 | N=c1c2c3c(sc2ncn1Cc1ccccc1)CCCCC3 | 2.44%
30 | CC(Cc1ccccc1)[N+]1=NO/C(=N/C(=O)N(C)C)C1 (stereo not shown) | 2.56%
31 | COc1ccc(C(=O)OC2c3ccccc3C(=O)N2Cc2ccccc2Cl)cc1OC (stereo not shown) | -1.03%
32 | Cc1cccc(N2CCN(C(=O)c3cccs3)CC2)c1C | 3.01%
33 | CC1CN=C(/C=C(\O)c2cccs2)C(=O)N1 (stereo not shown) | -5.08%
34 | CC(C)NC(=O)C1CN(S(=O)(=O)c2ccccc2)CCN1S(=O)(=O)c1ccccc1 (stereo not shown) | -0.99%
35 | O=C(NCCN1CCOCC1)c1nn2c(C(F)(F)F)cc(-c3ccccc3)nc2c1Br | -4.02%
36 | Cc1ccc(-c2cnc3c(=O)[nH]c(=O)[nH]c3n2)cc1 | 1.88%
37 | Oc1c2c(nc3cc(Cl)ccc13)CCCC2 | -3.09%
38 | Cc1cc2ccccc2n1CCNC(=O)COc1ccc(Cl)cc1Cl | -5.47%
39 | O=C1CC(c2ccc(F)cc2)CC(=O)C1=CNCC1NCCc2ccccc21 (stereo not shown) | -1.4%
40 | O=C(NCc1cccs1)C1CCN(c2nc3ccccc3o2)CC1 | 5.23%
41 | O=C1C2C3c4ccccc4C(c4ccccc43)C2C(=O)N1c1ccccc1I (stereo not shown) | -0.744%
42 | CC(=O)C1=C(O)C(=O)N(c2ccc(O)cc2)C1c1cccc(F)c1 (stereo not shown) | 2.06%
43 | CO/C=C(\Oc1ccccc1C)C(=O)Nc1ccc(Cl)cc1 | 2.73%
44 | CC(NCc1c(C(=O)O)n(Cc2cccc(Cl)c2)c2ccccc12)c1ccccc1 (stereo not shown) | 8.05%

Row | SMILES | % Inhibition @ 10 uM
45 | COCc1nnc(NC(=O)/C=C/c2cc(OC)c(OC)c(OC)c2)s1 | 26.7%
46 | Cc1cccc(S(=O)Cc2ccc(C(=O)NCc3ccccc3C)o2)c1 (stereo not shown) | 6.15%
47 | COc1cc(CNc2ncc(-c3ccccc3)n2C)cc(OC)c1OC | 0.627%
48 | O=C(Nc1cccc(Cl)c1)c1ccc([N+](=O)[O-])cc1 | 3.1%
49 | COc1cccc(CN2CCN(Cc3ccccc3C(F)(F)F)CC2)c1OC | -2.94%
50 | CCOc1ccc(C(=O)NC2CCCCCCC2)cc1 | -1.88%
51 | CNS(=O)(=O)c1ccc(-c2ccc(C(N[C@H](CC(C)C)C(=O)NCC#N)C(F)(F)F)cc2)cc1 (stereo partly shown) | -4.72%
52 | CN1CCC(N(C)Cc2ccccc2F)CC1 | 3.16%
53 | O=C(CCc1nc(-c2ccccc2)no1)NC1CCCCC1 | -3.12%
54 | O=C(NCCCc1ccccc1)c1ccc(Br)o1 | 0.389%
55 | O=C(NCc1ccco1)c1cc(-c2ccco2)nc2ccccc12 | -4.68%
56 | O=C(NCc1ccc(Cl)cc1)c1cc(-c2ccco2)[nH]n1 | 1.76%
57 | O=C(O)CCCCCNC(=O)c1cccc(Br)c1 | -5.41%
58 | CC(=O)c1ccc(NC(=O)c2ccccc2C(=O)O)cc1 | -5.46%
59 | Cc1cccc(NS(=O)(=O)Cc2ccccc2)c1C | -0.582%
60 | O=C(CS(=O)(=O)Cc1ccccc1)N1CCN(c2cccc(Cl)c2)CC1 | 3.92%
61 | CN1CCN(C(=O)CN(c2ccc(F)cc2)S(=O)(=O)c2ccccc2)CC1 | -2.44%
62 | COC(=O)C1=C(C)NC(=O)CC1c1cccc(Cl)c1 (stereo not shown) | -1.36%
63 | N#CCNC(=O)[C@H](Cc1c(F)cc(F)cc1F)NC(=O)OCc1ccccc1 | -0.207%
64 | N#Cc1ccc(/C=c2\sc3nc4ccccc4n3c2=O)cc1 | 2.26%
65 | O=C(CSc1nnnn1-c1ccc(O)cc1)NCc1cccc(C(=O)O)c1 | -3.96%
66 | O=C(CCn1c(=O)[nH]c2ccsc2c1=O)N1CCC(Cc2ccccc2)CC1 | 7.93%

Row | SMILES | % Inhibition @ 10 uM
67 | Cc1cccc(/N=C2\C(=O)N(C)c3cccc4c(O)c5ccccc5c2c34)c1 | -2.46%
68 | CCC(=O)Nc1ncc2c(n1)CC(c1ccc(Cl)cc1)CC2=O (stereo not shown) | -2.14%
69 | O=C(Cc1ccccc1)C1CCOC1=O (stereo not shown) | 6.24%
70 | CN1CCN(c2ccc(NC(=O)c3ccco3)cc2)CC1 | 2.55%
71 | O=C(O)C1CC=CCC1C(=O)NCc1ccncc1 (stereo not shown) | 2.32%
72 | CCc1ccc(OCC(O)CN2CCN(Cc3ccccc3)CC2)cc1 (stereo not shown) | -2.37%
73 | c1ccc(OCCN2CCN(c3ccccc3)CC2)cc1 | 4.81%
74 | O=C(COc1ccccc1)n1nc(-c2ccco2)nc1NCc1cccs1 | 0.248%
75 | CCOc1cc2c(cc1OC)C(c1ccc(N(C)C)cc1)NCC2 (stereo not shown) | -1.22%
76 | CN1C(=O)NC(=O)/C(=C\c2cc3c(cc2Cl)OCO3)C1=O | -2.97%
77 | Cc1c(C(=O)OC(C)C)[nH]c2c1C(=O)CC(C)(C)C2 | 0.559%
78 | Cc1cccc(OCc2nc(C#N)c(N3CC(C)OC(C)C3)o2)c1 (stereo not shown) | 2.32%
79 | CO/C(=N\c1c(C)cc(C)cc1C)c1ccco1 | -0.736%
80 | CCCNC(=O)c1cc2nc(-c3ccc(Cl)cc3)cc(C(F)(F)F)n2n1 | -1.93%
81 | COc1coc(CSC(=S)N2CCCCC2)cc1=O | -0.636%
82 | CC1(C)CC(=O)c2c(nc(SCC(=O)NCc3ccc4c(c3)OCO4)c(C#N)c2-c2ccccc2)C1 | 3.06%
83 | O=C(OCCCc1nc2ccccc2[nH]1)C12CC3CC(CC(C3)C1)C2 | -7.78%
84 | Cc1nc(O)nc(O)c1S(=O)(=O)N1CCN(C2CCCCC2)CC1 | -2.58%
85 | O=C(CC1CCCCC1)NCc1nc(-c2ccc(Cl)cc2)no1 | -2.99%
86 | Cc1nn(Cc2ccccc2)c(=S)[nH]c1=O | -3.63%
87 | O=C(NCCc1ccc(Cl)cc1)NCc1noc2ccccc12 | -2.85%
88 | CC/N=C1\S/C(=C\c2ccc(F)cc2)C(=O)N1CC | -24.6%

Row | SMILES | % Inhibition @ 10 uM
89 | CCn1c(=O)c2sccc2n2c(CCCC(=O)NCCc3c[nH]c4ccccc34)nnc12 | -4.76%
90 | NC(=O)c1ccc(Cl)c(N2C(=O)C3C4C=CC(C4)C3C2=O)c1 (stereo not shown) | 3.8%
91 | O=C(Cn1ncc2c3ccccc3nc-2c1O)Nc1ccc(Cl)cn1 | -5.6%
92 | Cc1cnc(NC(=O)CSc2ncn(-c3ccccc3)n2)s1 | 0.245%
93 | CSc1ccc2nc(NC(C)CCCC(C)(C)O)cc(C)c2c1 (stereo not shown) | -3.32%
94 | Sc1nnc(CN2CCCCCC2)n1-c1ccccc1 | 1.43%
95 | CCOC(=O)CNC(=O)NC(C)c1ccc(C)cc1 (stereo not shown) | 0.968%
96 | Cc1nn(-c2ccc(F)cc2)c(-n2cccc2)c1C(=O)Nc1nccs1 | -6.49%
97 | COc1ccc(-c2cc(C(F)(F)F)n3nc(C(=O)NCc4ccccc4)cc3n2)cc1 | 15.6%
98 | CC(c1ccccc1)C1C(C#N)=C(N)Oc2[nH]nc(-c3ccccc3)c21 (stereo not shown) | 5%
99 | Cc1cc(C)c(C)c(S(=O)(=O)NCC(=O)N2CCN(C(=O)c3ccco3)CC2)c1C | 2.4%
100 | COc1ccccc1C1C(C#N)=C(C)N=C2CC(c3ccccc3)CC(O)=C21 (stereo not shown) | 0.792%
101 | OC12CCCCC1C(c1c(F)cccc1Cl)NCC2 (stereo not shown) | -0.13%
102 | CC12CN3CC(C)(CN(C1)C3(C)C)C2O (stereo not shown) | -4.03%
103 | C/C=C(\C)CN1CCCC(C(=O)OCC)C1 (stereo not shown) | 3.48%
104 | CC(Oc1ccc(Oc2ncc(Cl)cc2Cl)cc1)C(=O)O (stereo not shown) | -6.86%
105 | CCO/C(O)=C1\C(C)=NC(=S)NC1c1cccc(OC)c1 (stereo not shown) | -1.99%
106 | O=C(NC1CCCCC1)NC1CCN(c2nc3ccccc3s2)CC1 | -2.88%
